# Measurements as given in PubChem BioAssay AID686979 (National Center for Advancing Translational Sciences (NCATS), 2013).
# The whole screen tested about 420,000 compounds, of which about 50,000 (12%) were called active. Inconclusive means that the source gave no clear call. Such entries were picked first, then a sample of the others. The call rests on the fitted dose curve; in most records, active means well fitted inhibition curve with a large enough effect; inconclusive means small, poorly fitted or top-dose-only effect; inactive means flat fitted curve, though single readings scatter. Potencies of inconclusive entries are left out as doubtful fits.
# Assay: qHTS for Inhibitors of human tyrosyl-DNA phosphodiesterase 1 (TDP1): qHTS in cells in presence of CPT; further: nearly all actives have a fitted effect of over 55% in size
# Details: chicken DT40 Tdp1-/-;hTDP1 cells + 20 nM CPT, ATP luminescence, 48 h; activity change, negative = growth inhibition: at 46.2 µM (top of the series)
# Summary of the method: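 Cell growth measured by CellTiter-Glo luminescence after a minimum 48 h, 37 C compound exposure with 20 nM CPT in Tdp1-knockout DT40 cells stably expressing hTDP1, seeded 400/well; qHTS titration format.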
# On the % scale 0 is the no-effect control and ±100 the full control effect; potency means the concentration at half of the fitted maximal effect; tags describe the fitted curve by direction and shape.
Structure (SMILES),Potency,"activity change, negative = growth inhibition"
CN(C)S(=O)(=O)c1ccc(C(=O)NC2CCCc3ccccc32)cc1 (centres undefined),inactive,–
CC(C)N1C(=O)C(O)(c2c[nH]c3ccccc23)c2ccccc21 (centres undefined),inactive,–
Cc1ccc2cc(C#N)c(N3CCCC3)nc2c1C,"inconclusive [inhibitor, single point]",–
COc1cccc(-c2cn3c(n2)sc2cc(C(=O)NCCc4ccc(OC)c(OC)c4)ccc23)c1,active: 4.61 µM,–
Cc1cccc(N2CCn3c2nc2c3c(=O)n(CCc3ccccc3)c(=O)n2C)c1,"inconclusive [inhibitor, full curve]",–
C/C(=N\NC(=O)c1cccc(S(=O)(=O)Nc2ccc(C)cc2C)c1)c1ccncc1,"inconclusive [inhibitor, partial curve]",–
O=C1c2ccccc2C(=O)N1CCC1=CCCCC1,"inconclusive [inhibitor, single point]",–
O=C(/C=C/[C@H]1O[C@@H](n2ccc(=O)[nH]c2=O)[C@H](O)[C@@H]1O)N[C@@H](Cc1ccccc1)C(=O)O,inactive,–
CCCC(=O)Nc1nc2nc(-c3ccccc3)cc(-c3ccccc3)n2n1,"inconclusive [inhibitor, partial curve, poor fit]",–
CC(c1ccco1)N(C(=O)C12CC3CC(CC(C)(C3)C1)C2)c1ccccn1 (centres undefined),active: 16.4 µM,–
O=C(OCc1c(-c2ccccc2)ncc2ccccc12)c1ccco1,"inconclusive [inhibitor, single point]",–
Cc1cc2ccccc2n1CCNC(=O)c1ccccc1,"inconclusive [inhibitor, single point]",–
CCN(C[C@H]1N[C@@](C)(C(=O)OC)[C@H]2C(=O)N(Cc3ccccc3)C(=O)[C@@H]12)S(=O)(=O)c1ccc(C)cc1,inactive,–
O=C(CNC(=O)c1ccc(Cl)cc1)OCn1nnc2ccccc2c1=O,"inconclusive [inhibitor, single point]",–
O=c1[nH]c(SCc2ccc(OC(F)(F)F)cc2)nc2c1CCC2,"inconclusive [inhibitor, single point]",–
Cc1ccc(-c2nnc(-c3cccc(NC(=O)c4cccs4)c3)o2)cc1,"inconclusive [inhibitor, single point]",–
Cc1cccc(N2C(=O)CS(=O)(=O)C23C(=O)N(Cc2c(F)cccc2Cl)c2ccccc23)c1 (centres undefined),active: 20.6 µM,–
CSc1cccc(NC(=O)CN2CCN(Cc3ccccc3C)S2(=O)=O)c1,"inconclusive [inhibitor, single point]",–
CCOc1ccc(CCNC(=O)c2cccc(-n3cnnn3)c2)cc1OCC,"inconclusive [inhibitor, single point]",–
Cc1ccccc1Nc1nc(-c2ccccc2)c(C(=O)Nc2cccnc2)s1,"inconclusive [inhibitor, single point]",–
COc1cccc(CC(=O)Nc2ccc3c(c2)CCC3)c1,inactive,–
CCOC(=O)c1c(NC(=O)CSc2nnc(-c3ccncc3)n2Cc2ccco2)sc(C)c1C,"inconclusive [inhibitor, partial curve]",–

Structure (SMILES),Potency,"activity change, negative = growth inhibition"
COc1ccccc1N1CCN(Cc2cccs2)CC1,inactive,–
O=C(CN1CCN(Cc2ccccc2Cl)C1=O)NCCCN1CCOCC1,inactive,–
CCc1nc2ccc(C(=O)NC3CCN(Cc4ccccc4)CC3)cn2c1N(C)Cc1cccs1,"inconclusive [inhibitor, full curve, poor fit]",–
C=C(Br)CN1[C@@H](Cc2ccccc2)[C@H](O)[C@@]23C=C[C@@H](C[C@@H]2S1(=O)=O)O3,"inconclusive [inhibitor, single point]",–
Cc1cc(N)c(-n2cc3c(c2-c2ccc(Br)cc2)c(=O)n(C)c(=O)n3C)cc1C,active: 16.4 µM,–
COc1ccc(S(=O)(=O)N2CCCC(C(=O)NCC3CCCO3)C2)cc1OC (centres undefined),inactive,–
COc1ccc(C(c2c(O)cc(C)oc2=O)c2c(O)cc(C)oc2=O)cc1,inactive,–
COc1ccc(C(C)NC(=O)c2ccc([N+](=O)[O-])cc2)cc1OC (centres undefined),active: 0.92 µM,–
CC(=O)Nc1ccccc1NC(=O)c1cc(C)cc(C)c1,"inconclusive [inhibitor, single point]",–
O=C(c1ccco1)N1CCN(c2c([N+](=O)[O-])nn(-c3cccc(Cl)c3)[n+]2[O-])CC1,active: 16.4 µM,–
NS(=O)(=O)c1cccc(NC(=O)CSc2nc3ccccc3n2-c2ccccc2)c1,"inconclusive [inhibitor, single point]",–
Cc1cc(C)cc(Oc2coc3cc(OCC(=O)NC4CCCCC4)ccc3c2=O)c1,"inconclusive [inhibitor, single point]",–
CCn1c(=O)c2c(nc3n2CCCN3Cc2ccccc2)n(C)c1=O,inactive,–
CCn1c(CNc2ccc(Cl)cc2)nnc1SCc1ccc(C)cc1,–,inconclusive: -31.2% [inhibitor]
COC(=O)C1=CN(c2ccc(Cl)cc2)C=C(C(=O)OC)C1c1ccc([N+](=O)[O-])cc1,"inconclusive [inhibitor, single point]",–
COC(=O)C1=C(C)NC(C)=C(C(=O)OC)C1C(=O)OCc1nnc(-c2ccccc2Cl)o1,"inconclusive [inhibitor, single point]",–
CCc1ccc(-c2cc(C(=O)NCc3ccco3)c3ccccc3n2)s1,"inconclusive [inhibitor, partial curve]",–
C/C(=N\NC(=O)c1ccccc1NC(=O)c1ccc(Cl)cc1)c1ccncc1,active: 0.92 µM,–
CC(=O)[C@H]1CC[C@H]2[C@@H]3CCC4=CC(=O)CC[C@]4(C)[C@H]3[C@H](O)C[C@]12C,"inconclusive [inhibitor, single point]",–
CCOc1ccc(-c2cc(C(=O)Nc3ccc(NC(C)=O)cc3)no2)cc1,inactive,–
C=CCN(CC=C)S(=O)(=O)c1ccc2nc(NC(=O)C(C)C)sc2c1,active: 5.8 µM,–
Cc1noc(C)c1C(=O)N1CCN(C(=O)c2sc3cc(Cl)ccc3c2Cl)CC1,"inconclusive [inhibitor, single point]",–
